Some of the results follow. The energies were worked out here from pooled read counts, against the library average; single values are noisy.
The sequences below were run against T1, Pho4 (S. cerevisiae) (UniProt P07270) (assay: relative binding free energy (BET-seq); higher = weaker binding). Conditions: reference: library average.
T1 sequence: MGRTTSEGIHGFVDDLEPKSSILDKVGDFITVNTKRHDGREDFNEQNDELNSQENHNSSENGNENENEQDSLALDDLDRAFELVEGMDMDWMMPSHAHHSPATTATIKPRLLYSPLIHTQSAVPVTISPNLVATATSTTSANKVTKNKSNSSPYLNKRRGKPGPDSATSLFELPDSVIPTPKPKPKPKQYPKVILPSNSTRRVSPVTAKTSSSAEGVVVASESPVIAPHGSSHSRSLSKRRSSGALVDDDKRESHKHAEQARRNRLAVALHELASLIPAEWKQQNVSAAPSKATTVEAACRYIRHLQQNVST
AATGGCACGTGCGTTA was tested, and the “relative binding free energy” value was -0.17 kcal/mol.
AAGTTCACGTGGGGTA was tested, and the “relative binding free energy” value was 0.09 kcal/mol.
With TGTTCCACGTGGTTCT the “relative binding free energy” value was -0.1 kcal/mol.
In the case of GGGGGCACGTGCTATT, the “relative binding free energy” value was -0.26 kcal/mol.
With GATCGCACGTGATGTG the “relative binding free energy” value was 0.23 kcal/mol.
TGGGCCACGTGAGGGC was tested, and the “relative binding free energy” value was 0.05 kcal/mol.
With GGGGGCACGTGACAGA the “relative binding free energy” value was 0.05 kcal/mol.
In the case of CAGGGCACGTGGAGTG, the “relative binding free energy” value was -0.04 kcal/mol.
In the case of GGTCACACGTGGTTGG, the “relative binding free energy” value was 0.17 kcal/mol.
With AGTGTCACGTGTCGTC the “relative binding free energy” value was 0.12 kcal/mol.
In the case of GAGTACACGTGAGGTG, the “relative binding free energy” value was 0.24 kcal/mol.
With CTGTTCACGTGTAAAG the “relative binding free energy” value was 0.28 kcal/mol.
For GAGATCACGTGATTGT, the “relative binding free energy” value was 0.3 kcal/mol.
With TGTATCACGTGGCGGT the “relative binding free energy” value was 0.09 kcal/mol.
With CGATTCACGTGGGGCT the “relative binding free energy” value was 0.07 kcal/mol.
TAATTCACGTGTGAGA was tested, and the “relative binding free energy” value was 0.36 kcal/mol.
In the case of GGAAACACGTGTGGCT, the “relative binding free energy” value was 0.2 kcal/mol.
GCTGGCACGTGGTAGT was tested, and the “relative binding free energy” value was -0.11 kcal/mol.
For ATGGGCACGTGTCGTC, the “relative binding free energy” value was -0.12 kcal/mol.
For GCTAGCACGTGTAAGT, the “relative binding free energy” value was 0.18 kcal/mol.
With CTAAGCACGTGTGTAG the “relative binding free energy” value was -0.1 kcal/mol.
GGTGCCACGTGTTCGG was tested, and the “relative binding free energy” value was -0.11 kcal/mol.
TACTTCACGTGGAGTT was tested, and the “relative binding free energy” value was 0.37 kcal/mol.
In the case of TGAGACACGTGATGTA, the “relative binding free energy” value was 0.22 kcal/mol.
With TTGGGCACGTGCGATA the “relative binding free energy” value was -0.07 kcal/mol.
TTTGCCACGTGAGATG was tested, and the “relative binding free energy” value was 0.16 kcal/mol.
TTTGGCACGTGCCAGT was tested, and the “relative binding free energy” value was -0.23 kcal/mol.
In the case of TGGCGCACGTGTGGTA, the “relative binding free energy” value was 0 kcal/mol.
For AGCGACACGTGTGTTT, the “relative binding free energy” value was 0.04 kcal/mol.
In the case of CGAATCACGTGAGGGT, the “relative binding free energy” value was 0.29 kcal/mol.
For TGGATCACGTGTGCTT, the “relative binding free energy” value was 0.22 kcal/mol.
For TTCATCACGTGTAATG, the “relative binding free energy” value was 0.19 kcal/mol.
With TTTTTCACGTGAATTA the “relative binding free energy” value was 0.35 kcal/mol.
For GGTGGCACGTGAAACG, the “relative binding free energy” value was 0.23 kcal/mol.
With AGGTGCACGTGTTGGC the “relative binding free energy” value was 0.12 kcal/mol.
AGTTTCACGTGCATTG was tested, and the “relative binding free energy” value was 0.17 kcal/mol.
For TGTAACACGTGGAATA, the “relative binding free energy” value was 0.09 kcal/mol.
In the case of TGTGTCACGTGTCGCT, the “relative binding free energy” value was 0 kcal/mol.
In the case of TTTCCCACGTGTGGTT, the “relative binding free energy” value was -0.01 kcal/mol.
TCGTCCACGTGTTAGG was tested, and the “relative binding free energy” value was 0.05 kcal/mol.
With GTTACCACGTGGGTTG the “relative binding free energy” value was -0.18 kcal/mol.
AGGAACACGTGATCGG was tested, and the “relative binding free energy” value was 0.23 kcal/mol.
In the case of TAATGCACGTGATGAA, the “relative binding free energy” value was 0.09 kcal/mol.
GGTATCACGTGTTTAC was tested, and the “relative binding free energy” value was 0.24 kcal/mol.
With GTTGGCACGTGCCTGG the “relative binding free energy” value was -0.05 kcal/mol.
For ATGCGCACGTGATATT, the “relative binding free energy” value was 0.04 kcal/mol.
For GTTTACACGTGTTGCC, the “relative binding free energy” value was 0.32 kcal/mol.
For TGAATCACGTGATTGT, the “relative binding free energy” value was 0.31 kcal/mol.
For AGTTTCACGTGGACGT, the “relative binding free energy” value was 0.32 kcal/mol.
TTAGGCACGTGCGTTT was tested, and the “relative binding free energy” value was -0.11 kcal/mol.
With TCTGGCACGTGGAATG the “relative binding free energy” value was 0.03 kcal/mol.
With GAGGTCACGTGTATTG the “relative binding free energy” value was 0.26 kcal/mol.
In the case of TTCTTCACGTGCGGAT, the “relative binding free energy” value was 0.29 kcal/mol.
In the case of TATATCACGTGGTCAT, the “relative binding free energy” value was 0.13 kcal/mol.
For GAACGCACGTGTGTTG, the “relative binding free energy” value was -0.08 kcal/mol.
TGAGCCACGTGGTGTT was tested, and the “relative binding free energy” value was -0.21 kcal/mol.
With TTGATCACGTGCGTTT the “relative binding free energy” value was 0.18 kcal/mol.
With GCTAGCACGTGTTGTG the “relative binding free energy” value was -0.14 kcal/mol.
In the case of TCGTGCACGTGGGCGA, the “relative binding free energy” value was -0.15 kcal/mol.
With TAGGGCACGTGTCTAG the “relative binding free energy” value was -0.09 kcal/mol.
TTAATCACGTGGCAGT was tested, and the “relative binding free energy” value was 0.02 kcal/mol.
With AGTTCCACGTGATGGG the “relative binding free energy” value was 0.16 kcal/mol.
GATAGCACGTGGTGAT was tested, and the “relative binding free energy” value was -0.02 kcal/mol.
GGCTTCACGTGTTAAT was tested, and the “relative binding free energy” value was 0.43 kcal/mol.
In the case of GTGGGCACGTGCAACG, the “relative binding free energy” value was -0.02 kcal/mol.
With TAGTACACGTGTCTGT the “relative binding free energy” value was 0.07 kcal/mol.
With TTAGGCACGTGAAGTG the “relative binding free energy” value was 0.09 kcal/mol.
In the case of GTAGTCACGTGAGAGA, the “relative binding free energy” value was 0.22 kcal/mol.
ATTGGCACGTGTTAGT was tested, and the “relative binding free energy” value was -0.13 kcal/mol.
In the case of AGCGGCACGTGTATTG, the “relative binding free energy” value was -0.07 kcal/mol.
In the case of ACTTGCACGTGCTGGG, the “relative binding free energy” value was -0.13 kcal/mol.
For TACGGCACGTGGTCTG, the “relative binding free energy” value was -0.11 kcal/mol.
For CATCGCACGTGGGTGG, the “relative binding free energy” value was -0.28 kcal/mol.
TGGGACACGTGGTAGG was tested, and the “relative binding free energy” value was -0.02 kcal/mol.
In the case of TTATGCACGTGATAGT, the “relative binding free energy” value was -0.03 kcal/mol.
For TCAGGCACGTGGGGGT, the “relative binding free energy” value was -0.11 kcal/mol.
TTGAACACGTGCTATT was tested, and the “relative binding free energy” value was 0.09 kcal/mol.
For TGATGCACGTGGTAGG, the “relative binding free energy” value was -0.1 kcal/mol.
For TATTTCACGTGTGTCA, the “relative binding free energy” value was 0.17 kcal/mol.
In the case of TGGGACACGTGCTAGG, the “relative binding free energy” value was -0.01 kcal/mol.
In the case of GATTGCACGTGTTGGT, the “relative binding free energy” value was 0.06 kcal/mol.
For TGCGTCACGTGGGTTC, the “relative binding free energy” value was -0.08 kcal/mol.
TGCGTCACGTGCCGGG was tested, and the “relative binding free energy” value was 0.06 kcal/mol.
In the case of TGTAGCACGTGGGATG, the “relative binding free energy” value was -0.12 kcal/mol.
For AGAGGCACGTGGAAGT, the “relative binding free energy” value was -0.01 kcal/mol.
With TTTCTCACGTGTCGTG the “relative binding free energy” value was 0.25 kcal/mol.
AGGTACACGTGTTGGG was tested, and the “relative binding free energy” value was 0.11 kcal/mol.
GTTCTCACGTGTTCGG was tested, and the “relative binding free energy” value was 0.29 kcal/mol.
In the case of CGCTTCACGTGGAGGT, the “relative binding free energy” value was 0.22 kcal/mol.
TGGCTCACGTGGCTGG was tested, and the “relative binding free energy” value was 0.12 kcal/mol.
For CTCGTCACGTGTTTTG, the “relative binding free energy” value was 0.09 kcal/mol.
With GGATGCACGTGTAGAT the “relative binding free energy” value was 0.21 kcal/mol.
In the case of TGAATCACGTGAATTT, the “relative binding free energy” value was 0.33 kcal/mol.
In the case of GGAAGCACGTGGTAGG, the “relative binding free energy” value was -0.23 kcal/mol.
In the case of GCTGTCACGTGAGGGA, the “relative binding free energy” value was 0.41 kcal/mol.
In the case of TGAAACACGTGTTGAT, the “relative binding free energy” value was 0.01 kcal/mol.
For TAGTTCACGTGTCAGA, the “relative binding free energy” value was 0.42 kcal/mol.
With ACGTTCACGTGTGTGT the “relative binding free energy” value was 0.18 kcal/mol.
TTGTTCACGTGCCGTT was tested, and the “relative binding free energy” value was 0.12 kcal/mol.
In the case of GTGTTCACGTGGGCAA, the “relative binding free energy” value was 0.16 kcal/mol.
ATTTGCACGTGTTGAT was tested, and the “relative binding free energy” value was 0.17 kcal/mol.
In the case of GGATACACGTGGAGGT, the “relative binding free energy” value was 0.02 kcal/mol.
With CTAGTCACGTGGTGAA the “relative binding free energy” value was 0.02 kcal/mol.
With AGTATCACGTGCGGTT the “relative binding free energy” value was 0.23 kcal/mol.
For TAGTACACGTGAGCGT, the “relative binding free energy” value was 0.16 kcal/mol.
With TTAATCACGTGTGGGT the “relative binding free energy” value was 0.25 kcal/mol.
With GCGGTCACGTGTTTAT the “relative binding free energy” value was 0.19 kcal/mol.
In the case of GGTTACACGTGGTTAT, the “relative binding free energy” value was 0.14 kcal/mol.
With TTTATCACGTGAATAT the “relative binding free energy” value was 0.41 kcal/mol.
For AATAGCACGTGGCGTG, the “relative binding free energy” value was -0.04 kcal/mol.
With ATGTGCACGTGGGGAC the “relative binding free energy” value was -0.13 kcal/mol.
In the case of AGTAGCACGTGTAATT, the “relative binding free energy” value was -0.02 kcal/mol.
In the case of TCATTCACGTGTTTTT, the “relative binding free energy” value was 0.31 kcal/mol.
In the case of AGAGTCACGTGTGTAC, the “relative binding free energy” value was 0.13 kcal/mol.
AGTGACACGTGTTGTC was tested, and the “relative binding free energy” value was -0.03 kcal/mol.
